Here are results for 54 compounds from paper PMC4336329 (PLoS ONE, 2015).

Molecules are shown by their SMILES. The whole screen tested about 310,000 compounds, of which about 2,200 (0.71%) showed an effect of 50% or more. The effect is printed as a negative number. Some of the results follow.

human ether-à-go-go-related gene (hERG) potassium channel, sequence (Q12809 whole entry, looked up): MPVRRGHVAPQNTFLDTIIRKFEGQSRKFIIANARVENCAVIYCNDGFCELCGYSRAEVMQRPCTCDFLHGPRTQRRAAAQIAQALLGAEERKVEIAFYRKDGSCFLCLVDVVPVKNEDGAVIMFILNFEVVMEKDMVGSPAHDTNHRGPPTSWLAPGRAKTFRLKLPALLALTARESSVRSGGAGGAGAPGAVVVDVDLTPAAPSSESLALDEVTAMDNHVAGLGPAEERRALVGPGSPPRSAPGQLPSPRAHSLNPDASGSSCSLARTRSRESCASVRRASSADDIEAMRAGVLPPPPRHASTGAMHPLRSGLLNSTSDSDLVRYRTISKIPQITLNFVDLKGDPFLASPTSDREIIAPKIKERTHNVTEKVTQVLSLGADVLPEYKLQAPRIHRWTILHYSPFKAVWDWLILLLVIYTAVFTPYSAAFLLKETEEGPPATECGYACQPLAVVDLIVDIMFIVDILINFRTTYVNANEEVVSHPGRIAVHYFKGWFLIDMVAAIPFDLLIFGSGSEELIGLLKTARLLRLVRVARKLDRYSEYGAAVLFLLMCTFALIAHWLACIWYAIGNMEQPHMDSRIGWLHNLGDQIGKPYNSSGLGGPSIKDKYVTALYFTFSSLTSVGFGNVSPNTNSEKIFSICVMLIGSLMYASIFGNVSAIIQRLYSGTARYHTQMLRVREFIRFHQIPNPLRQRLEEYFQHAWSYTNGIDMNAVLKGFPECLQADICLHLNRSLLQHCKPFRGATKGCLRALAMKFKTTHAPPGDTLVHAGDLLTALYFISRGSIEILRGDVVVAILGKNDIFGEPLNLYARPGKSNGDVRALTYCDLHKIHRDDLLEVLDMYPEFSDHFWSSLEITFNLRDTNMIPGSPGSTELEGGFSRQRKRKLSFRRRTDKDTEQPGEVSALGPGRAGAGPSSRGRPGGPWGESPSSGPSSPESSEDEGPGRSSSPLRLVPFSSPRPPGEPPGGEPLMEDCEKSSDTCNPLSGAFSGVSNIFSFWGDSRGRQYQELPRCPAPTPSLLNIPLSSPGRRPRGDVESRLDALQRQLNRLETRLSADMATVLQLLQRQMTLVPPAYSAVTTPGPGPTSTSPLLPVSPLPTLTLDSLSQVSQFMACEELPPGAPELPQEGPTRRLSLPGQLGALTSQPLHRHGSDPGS

This assay addresses human ether-à-go-go-related gene (hERG) potassium channel (human, UniProt Q12809). Kind of assay: primary screen, population patch clamp on CHO cells stably expressing hERG.
For the compound `CCc1nn(CC(=O)NCCc2ccc(S(N)(=O)=O)cc2)c(=O)c2cc3sccc3n12`, the “hERG current change (%, negative = inhibition) at 1uM” value worked out at 13.5%.

Turning to `Cc1ccc(Nc2nc(N)c([N+](=O)[O-])c(NCc3ccccc3)n2)cc1`, the “hERG current change (%, negative = inhibition) at 1uM” value is reported as 8.5%.

Regarding `CN(C)C(CNC(=O)c1cc(S(=O)(=O)N(C)c2ccccc2)ccc1Cl)c1cccs1` (stereo not drawn), the “hERG current change (%, negative = inhibition) at 1uM” value stood at 14.1%.

Consider `COc1ccccc1NC(=O)c1nn(C)c(C(=O)Nc2ccccc2OC)c1[N+](=O)[O-]`, for which the “hERG current change (%, negative = inhibition) at 1uM” value is 15%.

Regarding `Cc1ccc(-c2cn(S(=O)(=O)c3cccc([N+](=O)[O-])c3)nc2N)cc1`, the “hERG current change (%, negative = inhibition) at 1uM” value was determined as 12.6%.

On to `O=C(CSc1nnc(C2CC2)n1C1CC1)c1ccccc1F`, for which the “hERG current change (%, negative = inhibition) at 1uM” value was determined as 7.18%.

Take `CSc1nnc(N2C(=O)C(O)=C(C(=O)c3ccc(C)o3)C2c2ccc(C)cc2)s1` (stereo not drawn): the “hERG current change (%, negative = inhibition) at 1uM” value is on record as 7.56%.

For `CCN(CC(=O)Nc1c(F)cccc1F)C(=O)CCN1C(=O)c2cccc([N+](=O)[O-])c2C1=O`, the “hERG current change (%, negative = inhibition) at 1uM” value stood at 12.8%.

Turning to `O=C1CCc2cc(S(=O)(=O)NC(Cc3ccccc3)C(=O)NCC3CCCO3)ccc2N1` (stereo not drawn), the “hERG current change (%, negative = inhibition) at 1uM” value worked out at 13.3%.

As for `O=C(NC(=S)N1CCCCC1c1cccnc1)c1ccc(Br)cc1` (stereo not drawn), the “hERG current change (%, negative = inhibition) at 1uM” value was -2.83%.

For `COc1ccc(C(=O)OCC(=O)NC(C)CCc2ccccc2)cc1` (stereo not drawn), the “hERG current change (%, negative = inhibition) at 1uM” value was found to be 12.7%.

In the case of `S=C(NCc1ccco1)NC1CCCc2ccccc21` (stereo not drawn), the “hERG current change (%, negative = inhibition) at 1uM” value came to 7.27%.

On to `CCC(=O)Nc1nc(C)nc(C)c1C(C)=O`, for which the “hERG current change (%, negative = inhibition) at 1uM” value is given as 7.03%.

`Cc1nnc(SCc2nc(N)nc(Nc3ccccc3)n2)s1`: the “hERG current change (%, negative = inhibition) at 1uM” value stood at 2.83%.

Consider `O=C(Nc1nc2ccccc2n1Cc1ccc(Cl)cc1)c1ccco1`, for which the “hERG current change (%, negative = inhibition) at 1uM” value is recorded as 14.1%.

On to `Cc1noc(NS(=O)(=O)c2ccc(N)cc2)c1C`, for which the “hERG current change (%, negative = inhibition) at 1uM” value was found to be 11.1%.

Consider `COC(=O)c1c(C)cc(O)cc1O`, for which the “hERG current change (%, negative = inhibition) at 1uM” value is reported as 15.3%.

With `O=C(CCCC(=O)N(c1ccc(F)cc1)C(C(=O)NC1CCCC1)c1ccc(O)cc1)Nc1ccccn1` (stereo not drawn), the “hERG current change (%, negative = inhibition) at 1uM” value was 0.37%.

For `CC(=O)NC(Cc1ccccc1)C(=O)O` (stereo not drawn), the “hERG current change (%, negative = inhibition) at 1uM” value is given as 17.5%.

As to `COc1cc(NC(=O)CN2C(=O)c3ccccc3C2=O)c(C(=O)O)cc1OC`, the “hERG current change (%, negative = inhibition) at 1uM” value is on record as 15.4%.

On to `CCn1c(Cc2ccccc2)nnc1SCc1cccc(C(=O)O)c1`, for which the “hERG current change (%, negative = inhibition) at 1uM” value came out at 3.62%.

For the compound `OCC[N+]12CCC(CC1)C(C(O)(c1ccccc1)c1ccccc1)C2` (stereo not drawn), the “hERG current change (%, negative = inhibition) at 1uM” value is reported as 15.2%.

Consider `Br.CC1(C)OC(c2ccccc2)=C/C(=C/C=Nc2ccccc2)O1`, for which the “hERG current change (%, negative = inhibition) at 1uM” value was -10.4%.

As to `NC(=O)CC(NC(=O)Cc1ccc(Cl)cc1)c1ccc(N2CCC(Cc3ccccc3)CC2)c([N+](=O)[O-])c1` (stereo not drawn), the “hERG current change (%, negative = inhibition) at 1uM” value is listed as 13.7%.

As for `CC1Cc2ccccc2N1C(=O)C(C)n1cc(C(F)(F)F)cc(Cl)c1=O` (stereo not drawn), the “hERG current change (%, negative = inhibition) at 1uM” value was 2.48%.

Take `CCOc1cc(C(=S)N2CCOCC2)ccc1OS(=O)(=O)c1ccc(NC(C)=O)cc1`: the “hERG current change (%, negative = inhibition) at 1uM” value is listed as 3.35%.

Regarding `CCc1ccc(Nc2nc(C)cc(C)n2)cc1.Cl`, the “hERG current change (%, negative = inhibition) at 1uM” value worked out at 12.6%.

On to `O=C1CC(N2CCN(S(=O)(=O)c3ccccc3F)CC2)C(=O)N1c1ccccc1Cl` (stereo not drawn), for which the “hERG current change (%, negative = inhibition) at 1uM” value is 10.8%.

As to `CCOc1ccc(NC(=O)CCSc2ccc3ccccc3n2)cc1`, the “hERG current change (%, negative = inhibition) at 1uM” value is given as 16.5%.

Consider `Cc1[nH]n(-c2ccccc2)c(=O)c1N=Nc1c(O)cc(S(=O)(=O)N(C)C)c2ccccc12`, for which the “hERG current change (%, negative = inhibition) at 1uM” value was found to be 16.8%.

`CCOC(=O)c1sc2ccccc2c1OC(=O)c1ccccc1OC`: the “hERG current change (%, negative = inhibition) at 1uM” value is 1.47%.

In the case of `O=C(Cc1csc(NC(=O)Nc2ccc(Cl)cc2)n1)NCc1ccccn1`, the “hERG current change (%, negative = inhibition) at 1uM” value is listed as -8.65%.

With `CCn1cc(C(=O)O)c(=O)c2cc(F)c(N3CCN(C(=S)NC(=O)c4ccccc4F)CC3)cc21`, the “hERG current change (%, negative = inhibition) at 1uM” value is reported as 6.38%.

Consider `COc1ccc(OC)c(-c2c3cc(O)c(=O)cc-3oc3cc(O)c(O)cc23)c1`, for which the “hERG current change (%, negative = inhibition) at 1uM” value is 0.795%.

Take `C=CCOC(=O)C1=C[C@H](c2ccc(C(F)(F)F)cc2)[C@@H](CCCO)[C@H](OCC)O1`: the “hERG current change (%, negative = inhibition) at 1uM” value stood at 14.8%.

Take `O=C(NCCN1CCN(c2ccccc2F)CC1)C1c2ccccc2C(=O)N2CCc3ccccc3C12` (stereo not drawn): the “hERG current change (%, negative = inhibition) at 1uM” value came to 4.1%.

`Cc1ccc(-c2nn(Cc3ccccc3)cc2C=O)cc1`: the “hERG current change (%, negative = inhibition) at 1uM” value is reported as 2.58%.

`Cc1ccc2ccc3cccc4ccc1c2c34`: the “hERG current change (%, negative = inhibition) at 1uM” value is 16.4%.

As to `COc1ccccc1C(=O)N/C(=C/c1ccc(Br)cc1)C(=O)NCCO`, the “hERG current change (%, negative = inhibition) at 1uM” value was 1.21%.

Take `CN(C)CCCNc1c2c(nc3cc(-c4cccc(F)c4)nn13)CCC2`: the “hERG current change (%, negative = inhibition) at 1uM” value is on record as -15.6%.

As to `CCN(CC)C(=O)CSc1nc2ccccc2c(=O)n1-c1cccc(OC)c1`, the “hERG current change (%, negative = inhibition) at 1uM” value is reported as 2.18%.

For `Cc1cc(C)nc(NS(=O)(=O)c2ccc(NS(=O)(=O)c3ccc(C#N)cc3)cc2)n1`, the “hERG current change (%, negative = inhibition) at 1uM” value stood at 8.67%.

Regarding `COC(=O)CCSCC(=O)N1N=C(c2ccc(Br)cc2)CC1c1cccc(OC)c1OC` (stereo not drawn), the “hERG current change (%, negative = inhibition) at 1uM” value came out at 16.6%.

As to `O=C(CN1CCCN(Cc2ccc(F)cc2)S1(=O)=O)NC1CCCC1`, the “hERG current change (%, negative = inhibition) at 1uM” value is recorded as 9.24%.

`COC(=O)c1sc2nc(CSc3ccc(Br)cc3)[nH]c(=O)c2c1C`: the “hERG current change (%, negative = inhibition) at 1uM” value was found to be 13.3%.

For `Cc1ccc(CNC(=S)Nc2ccc(C)c([N+](=O)[O-])c2)cc1`, the “hERG current change (%, negative = inhibition) at 1uM” value amounted to 12.2%.

Turning to `CCCCn1c(-c2ccccc2)nnc1-c1ccccc1`, the “hERG current change (%, negative = inhibition) at 1uM” value is on record as -5.97%.

Take `Cc1cccc(C(=O)NCc2nnc(SCC(=O)NC(C)c3ccccc3)n2C)c1` (stereo not drawn): the “hERG current change (%, negative = inhibition) at 1uM” value stood at 13.3%.

Consider `COc1ccc(Br)cc1CNC(=O)C1CCN(c2nnc(N3CCCC3=O)s2)CC1`, for which the “hERG current change (%, negative = inhibition) at 1uM” value was 16.7%.

Regarding `COCCN(C(=O)Nc1ccccc1)c1ccccc1`, the “hERG current change (%, negative = inhibition) at 1uM” value stood at 11.3%.

As for `Cn1c(SCc2nnc(-c3ccc(F)cc3)o2)nnc1C1COc2ccccc2O1` (stereo not drawn), the “hERG current change (%, negative = inhibition) at 1uM” value was -22.2%.

With `CS(=O)(=O)N(CC(=O)NCc1ccco1)c1cccc([N+](=O)[O-])c1`, the “hERG current change (%, negative = inhibition) at 1uM” value is recorded as -0.556%.

Take `Cc1ccc(Cl)cc1N1CCN(C(CC(C)C)c2nnnn2CC2CCCO2)CC1` (stereo not drawn): the “hERG current change (%, negative = inhibition) at 1uM” value was 13.8%.

For the compound `Cl.Nc1ccc(O)c2ccccc12`, the “hERG current change (%, negative = inhibition) at 1uM” value is reported as 18.7%.
